This note sets out measurements from PMC12136788.

The labels stand for the following.
B1: chr1:203340627:203342342:-|three_prime_utr|ENSG00000122176|control|control|control (ssRNA)
RNA: GGGAGUUCUACAGUCCGACGAUCUGGCUUUUGCUGGAAGGUCCAGGAUGGACCAUGUGACAGAAGUCCACGGGCACCCUCUGUAGUCUUCUUUCCUGUAGGUGGGGUUAGGGGGGGCGAUCAGGGACAGGCAGCCUUCUGCUGCAACAGAGGAUUGAGCAUCA
B2: ENSG00000107863:be:win_1651|CDS|ENSG00000107863|bound_else_gene|NA|bound_elsewhere_windowed (ssRNA)
RNA: GGGAGUUCUACAGUCCGACGAUCAAAUCUUUUCGAGGUUCCAAUUUUACUGUGGCUCCAAGCGUUGUUAAUUCUGAUAACAGGCGAAUGAGUGGUAGAGGAGUGGGAUCUGUGUCGCAGUUUAAAAAAAUUCCACCAGAUCUACAACAGAGGAUUGAGCAUCA
B3: chr19:9526975:9527076:-|3pUTR|ENSG00000130818|unk|FALSE|unique (ssRNA)
RNA: GGGAGUUCUACAGUCCGACGAUCCCUCUCAGACCUUCCAUCAUUACUAUAUUUCACUUUUAUGCCUAUAAACACACACAAAUUAGCAUAUGUAAUCUAAUACAUUGUAGCUAUUUUUCAGAAGUUAUCAGAUCAAUUAAGUAUCAACAGAGGAUUGAGCAUCA
B4: chr10:27397735:27399240:-|CDS|ENSG00000182077|control|control|control (ssRNA)
RNA: GGGAGUUCUACAGUCCGACGAUCUCUUCUAGGCUACCCAGUGUUACAAAGUGCAAUUUCAACAAUAAUAGGGGUGUGUGUUUUAGCUGCAGCGAAAGCAUACAUCUUCAGAACAUUUUUUAAGAUUAUGUUUCUUGUUAUGAUCAACAGAGGAUUGAGCAUCA
B5: chr19:14119889:14120036:-|3pUTR|ENSG00000105011|msi1|FALSE|unique (ssRNA)
RNA: GGGAGUUCUACAGUCCGACGAUCAGCAGACCCACUCCAGCUUUCUGGUGUCACAGGCGGGAAUGUUAGUUAGUAGGUAGACUUAGAUCCCAUUUCUGUCCUGCUCCCAGGAAGAUUCUUAGGUCCUCUUCAAUCCAGCAGCCCCAACAGAGGAUUGAGCAUCA
B6: chr14:81473690:81473791:-|3pUTR|ENSG00000071537|msi1|FALSE|unique (ssRNA)
RNA: GGGAGUUCUACAGUCCGACGAUCCAGUGUUUUGGAAGUAUGCAUGCAGGCCUAUAAAUGAAAAACACAAUUCUUUAUGUGUAUAGCAUGUGUAUUAAUGUCUAACUACAUACGCAAAAACUUCCUUUACAGAGGUUCGGACUACAACAGAGGAUUGAGCAUCA
B7: chr15:39595431:39595532:+|3pUTR|ENSG00000137801|msi1_unk|FALSE|overlapping (ssRNA)
RNA: GGGAGUUCUACAGUCCGACGAUCCCCCAGGAUCACUUCUCCUUGGCUUCCUUCUUUUCUGUGCUUGCAUCAGUGUGGACUCCUAGAACGUGCGACCUGCCUCAAGAAAAUGCAGUUUUCAAAAACAGACUCAGCAUUCAGCCUCAACAGAGGAUUGAGCAUCA
B8: chr16:70572763:70572864:+|3pUTR|ENSG00000189091|msi1|FALSE|bound_elsewhere (ssRNA)
RNA: GGGAGUUCUACAGUCCGACGAUCUCUGCAGCACCCAUCUCAGGUGGGUUCCAGAGGGCCUUUAGGGUAUAAUGAGAGCCUGUUAGGUGGAAGAGGCCCAGUUCCAGAAAUGUUCCAGCCCACCCCUGAGAAUUCCUCCUGUUUCAACAGAGGAUUGAGCAUCA
B9: ENSG00000124766:be:win_3401|3pUTR|ENSG00000124766|bound_else_gene|NA|bound_elsewhere_windowed (ssRNA)
RNA: GGGAGUUCUACAGUCCGACGAUCCUGUAAGCUUUUAAGAAAAACAAAGUUUUAAACGAAAUACUGCUCUGUCCAGAGGCUUUAAAACUGGUGCAAUUACAGCAAAAAGGGAUUCUGUAGCUUUAACUUGUAAACCACAUCUUUCAACAGAGGAUUGAGCAUCA
B10: chr15:97973610:97973711:+|3pUTR|ENSG00000140450|unk|FALSE|unique (ssRNA)
RNA: GGGAGUUCUACAGUCCGACGAUCGGUGCACAAAAUCCUUCUGUGGGCAAAACUUUGUUUUUGUUUUGCACAGUAAGAAACAAUAGGCAAGCGUUAUGUUUUUGGUAAGUUAACUAUGAAAGCUUUCUUAUUUUUAUUAUUAAACAACAGAGGAUUGAGCAUCA
B11: chr16:58973:59127:-|CDS|ENSG00000007384|control|control|control (ssRNA)
RNA: GGGAGUUCUACAGUCCGACGAUCCAUCUGCUUCCAGAUGACUGUCCUGCGGGACCUGGAGAAGCUGGCAGGCUGGCACCGCAUAGCCAUCAUCUACCUGCUGAGUGGUGUCACCGGCAACCUGGCCAGUGCCAUCUUCCUGCCCAACAGAGGAUUGAGCAUCA
B12: chr2:121339258:121339359:-|3pUTR|ENSG00000074054|unk|FALSE|unique (ssRNA)
RNA: GGGAGUUCUACAGUCCGACGAUCUUUUGAGAUUAAUUCUAAUAACGUAUUUGCUAUUGCAGUGCAGAGCCCACUGCAACUGCUAGGACUGAAAGCAGAGGCUGGGUGCCAGAGCACGUGAUUCUUAACAUCAUUUCCACAGACCAACAGAGGAUUGAGCAUCA
B13: chr5:178185721:178187299:-|CDS|ENSG00000244234|control|control|control (ssRNA)
RNA: GGGAGUUCUACAGUCCGACGAUCAGCAUAGCAUUUAGAUUACGCUUGGCUUCUUUUGAUAGUAGUGGAAAACUAGUAUGUAGUAGAACAACUGGCUAUCAAAUACUUAUACUUAAAAAGGAUCAGGAACAAGUGGUGAUGAACCAACAGAGGAUUGAGCAUCA
B14: chr1:33300114:33300153:+|3pUTR|ENSG00000160094|msi1_unk|total|mutant (ssRNA)
RNA: GGGAGUUCUACAGUCCGACGAUCCCCUGCCCCCAGCCCCCACAGACACACCCCAAUCUGAAAGCCAUGCGUGUCGGUGUAUACCGGAACCAUGUACAGAGCCCAGAGAAGCCCCCUACAUCCCCCCGGGAAAAAAAAGAAAACCAACAGAGGAUUGAGCAUCA
B15: ENSG00000130764:stop:overlap|stop_codon|ENSG00000130764|stop_codon|NA|stop_codon (ssRNA)
RNA: GGGAGUUCUACAGUCCGACGAUCCAGGGUACAAAGAAAGCAUUCUCUUUCCAAAGGAGACGUUGUGGAACCAGUCUGUCAUCUAGAUGGCCCUGACGUGAGGGAAGUGGAAGGUGUUAGGAGCGGAGAUACCUUCACUUGCUGCAACAGAGGAUUGAGCAUCA
B16: chr9:35074926:35075082:-|three_prime_utr|ENSG00000221829|control|control|control (ssRNA)
RNA: GGGAGUUCUACAGUCCGACGAUCUGUGAGCAGGGAUGUAAGUCAGAUGCGGCACUGCAGCAGCUUCGGGCAGCCGCCCUAAUUAGUCGUGGACUGGAAUGGGUAGCCAGCGGCCAGGAUACCAAAGCCUUACAGGACUUCCUCCAACAGAGGAUUGAGCAUCA
B17: chr5:151662667:151662729:-|3pUTR|ENSG00000113140|msi1_unk|FALSE|overlapping (ssRNA)
RNA: GGGAGUUCUACAGUCCGACGAUCGCCAGGCUGUUUCAGCCAGGAAGGCCAAAAUCAAGAGUGAGAUGUAGAAAGUUGUAAAAUAGAAAAAGUGGAGUUGGUGAAUCGGUUGUUCUUUCCUCACAUUUGGAUGAUUGUCAUAAGCAACAGAGGAUUGAGCAUCA
B18: chr1:145912163:145912566:-|CDS|ENSG00000131779|control|control|control (ssRNA)
RNA: GGGAGUUCUACAGUCCGACGAUCCCCACUUCUGCUAGACGUGGUCAGAAAUGCCUGUGAUCUCUUCAUUCCUCUGGACAAACUAGGCCUCUGGCGCUGUGGCCCUGGGAUUGUGGGGCUUUGUGGCCUCGUGUCCUCCAUCCUCAACAGAGGAUUGAGCAUCA
B19: chrX:133301433:133301604:-|3pUTR|ENSG00000076716|msi1|total|mutant (ssRNA)
RNA: GGGAGUUCUACAGUCCGACGAUCUUGUUUUUCUUGGGGGAUGGGGUGGGGUGGGAGCCGGCCGAGCUGAGAAUACUACAUCUCCGUGGUGACCUUCCGCCACGUGGGUGAAGUGGCAAAGGCCAUGGCCAUAUCUGUUGUCCCCAACAGAGGAUUGAGCAUCA
B20: chr7:21908192:21908293:-|CDS|ENSG00000164649|msi1|FALSE|unique (ssRNA)
RNA: GGGAGUUCUACAGUCCGACGAUCUUUUCUAGCGCACGCUUACAGAAUGAGAAAAAAACAAUUCUUGAAAGAAAGAAAGACUGUAGACAGGUGAUACAAAGGGAAGAUUCUACCUCUGAGUCUGAGGAUGACUCUCGGGAUGAGCAACAGAGGAUUGAGCAUCA
B21: ENSG00000124766:be:win_1301|CDS|ENSG00000124766|bound_else_gene|NA|bound_elsewhere_windowed (ssRNA)
RNA: GGGAGUUCUACAGUCCGACGAUCUUAACUUCGAGCCCGGCUCCGGCUCGCACUUCGAGUUCCCGGACUACUGCACGCCCGAGGUGAGCGAGAUGAUCUCGGGAGACUGGCUCGAGUCCAGCAUCUCCAACCUGGUUUUCACCUCAACAGAGGAUUGAGCAUCA
B22: chr5:113014749:113014850:+|3pUTR|ENSG00000172795|msi1|total|mutant (ssRNA)
RNA: GGGAGUUCUACAGUCCGACGAUCUAAAAAUCCUUUUUUACAGUGGUAUCCACAAAAUACUUCUCUGCUUAUAAAUGUUAUUGCCGAAAUCUUUAUUCUGUGCCGGCCGCCUAUUUAAUUGGGUUCCACUGAACCUCAUGGGACCAACAGAGGAUUGAGCAUCA

Some of the results follow.

The assay addresses MSI1 full-length (mouse, UniProt Q61474 1-362). Briefly: nsRBNS (natural sequence RNA bind-n-seq); RBNS binding buffer (assumed for nsRBNS): 25 mM Tris pH 7.5, 150 mM KCl, 3 mM MgCl2, 0.01% Triton X-100, 500 ug/ml BSA, 20 U/ml SUPERase-In, 4 C; UNK is unkempt and MSI1 is Musashi-1; names of the RNAs are library labels; protein concentration not given here; high values mean tight binding.
Sequence of UniProt Q61474 (Q61474 whole entry): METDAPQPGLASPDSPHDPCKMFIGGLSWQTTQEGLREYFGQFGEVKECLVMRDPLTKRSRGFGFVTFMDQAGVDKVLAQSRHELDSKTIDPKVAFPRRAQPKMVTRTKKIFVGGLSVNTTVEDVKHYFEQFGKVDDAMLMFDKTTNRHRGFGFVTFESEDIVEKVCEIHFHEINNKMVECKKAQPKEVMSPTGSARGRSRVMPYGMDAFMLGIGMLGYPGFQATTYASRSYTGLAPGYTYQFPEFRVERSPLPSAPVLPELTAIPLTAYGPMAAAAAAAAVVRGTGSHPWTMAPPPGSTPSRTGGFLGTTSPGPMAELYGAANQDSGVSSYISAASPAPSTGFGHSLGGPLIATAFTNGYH
B1 gave a binding signal of 0.733 enrichment R.
B2 had a binding signal of 0.432 enrichment R.
Molecule B3 gave a binding signal of 14.2 enrichment R.
Take B4: the binding signal was determined as 0.321 enrichment R.
Take B5: the binding signal was 38.2 enrichment R.
To B6 belongs 0.467 enrichment R.
In turn, B7 displayed a binding signal of 0.487 enrichment R.
In turn, B8 came in with a binding signal of 0.474 enrichment R.
In turn, B9 had a binding signal of 0.473 enrichment R.
In turn, B10 displayed a binding signal of 1.29 enrichment R.
To B11 belongs 0.272 enrichment R; to B12, 0.654 enrichment R; to B13, 12.7 enrichment R.
For B14, the binding signal was found to be 0.665 enrichment R.
B15 displayed a binding signal of 0.435 enrichment R.
Turning to B16, the binding signal is 0.504 enrichment R.
Under B17 stands 4.51 enrichment R.
Regarding B18, the binding signal came to 0.376 enrichment R.
The molecule B19 had a binding signal of 1.23 enrichment R.
Regarding B20, the binding signal was determined as 0.465 enrichment R.
B21 gave a binding signal of 0.254 enrichment R.
In the case of B22, the binding signal amounted to 0.389 enrichment R.
